Laboratory results as given in PubChem BioAssay AID2060325 (Molecular Pharmacology Branch, DTP, NCI, 2025).
Certain results were filed several times, with different values. This list holds those alone. An entry can have further records. Results that share an entry are repeats (runs, samples, wells, individuals or studies).

Test system: SK-OV-3 multi-cell spheroids, viability
Assay: Anticancer human tumor SK-OV-3 cell line growth inhibition [IpAb]
Conditions: compound alone; run of 05/18/2021
From the text: Combinatorial screen of targeted agents with ipatasertib and abemaciclib in multi-cell type tumor spheroids
A high-throughput screen of multi-cell type tumor spheroids was designed to identify active combinations of targeted small molecules and ipatasertib or abemaciclib. Complex spheroids include a stromal component modeled by human endothelial cells (HUVEC) and fibroblasts modeled by human mesenchymal stem cells (MSCs). The concentration ranges selected for each drug and investigational agent were based upon clinically achievable concentrations if the clinical Cmax of the agent was known.
Compounds. […] If the clinical Cmax for an agent had not been determined, the highest concentration tested was 10 microM.
NCI60 Cell Culture. […] The optimal seeding densities for each of the cell lines at each time point assessed were determined prior to performing the concentration response studies. […]

## CCN1CCN(Cc2ccc(Nc3ncc(F)c(-c4cc(F)c5nc(C)n(C(C)C)c5c4)n3)nc2)CC1
  IC50: 176, 340, 99.6, 249, 478, 251, 588, 536, 524, 467, 312, 261, 286 nM
